Test results reported in the supplement of paper PMC3334620.
Whole data set: some 33,000 sequences, median “E-score (-0.5 to 0.5)” near -0.035, cut for the highest 2% near 0.34. This is one part of the list.

The sequences below were run against T1, Mot3 (UniProt P54785) (assay: PBM E-score (8-mer binding enrichment) (E-score (-0.5 to 0.5)); higher = stronger / more preferred TF binding; most listed sequences are background and not binding sites). Conditions: protein concentration: 200 nM; construct: GST-full length.
T1 sequence: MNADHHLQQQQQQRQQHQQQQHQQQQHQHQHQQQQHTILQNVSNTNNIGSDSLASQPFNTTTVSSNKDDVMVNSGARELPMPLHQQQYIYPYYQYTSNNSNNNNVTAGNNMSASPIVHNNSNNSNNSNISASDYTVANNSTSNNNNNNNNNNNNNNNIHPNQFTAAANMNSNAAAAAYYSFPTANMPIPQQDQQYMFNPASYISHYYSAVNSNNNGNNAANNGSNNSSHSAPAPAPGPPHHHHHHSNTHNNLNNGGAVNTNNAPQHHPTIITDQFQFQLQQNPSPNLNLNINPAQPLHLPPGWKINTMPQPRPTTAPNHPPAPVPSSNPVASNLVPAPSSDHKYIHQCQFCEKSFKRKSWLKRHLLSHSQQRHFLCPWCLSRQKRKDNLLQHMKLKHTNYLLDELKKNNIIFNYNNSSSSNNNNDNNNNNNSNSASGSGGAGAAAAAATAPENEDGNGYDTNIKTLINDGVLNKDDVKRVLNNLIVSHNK
In short: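 Full-length yeast transcription factors or their DNA-binding domains, GST-tagged and expressed with PURExpress, were applied at about 100-200 nM to universal all-10-mer Agilent arrays. These arrays had been made double-stranded by primer extension on fresh or once-stripped slides. Detection used fluorescent anti-GST, normalisation used masliner, and E-scores for ungapped eight-base words pooled with reverse complements came from the Universal PBM Analysis Suite.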

Sequence	PBM E-score
AGGTATCA	-0.00093
CATATCAC	0.0346
ATTGTAGC	0.053
ACGACACG	0.298
GTAACCCA	0.126
AGACTTAG	-0.0932
TATCCCAA	-0.00764
ACGTTACG	0.138
TATGAGGA	-0.0824
AGTTCGGC	-0.0626
TACATTGA	0.271
AGGAACAA	0.401
ACTAAGAA	0.0396
ATCGAAGC	-0.186
ACAGGGAT	0.0444
GCTGAGCC	-0.154
AGAAAATG	0.022
AGCTTCAG	-0.232
AAGAAAGG	0.233
CATGCGAG	-0.143
CAGGGACC	-0.263
CGTCGTTC	0.086
ACCAACCA	-0.0619
CAGGTAAA	0.383
GGTTGACA	0.0363

Sequence	PBM E-score
ACATAACT	0.239
CACACCGA	0.123
CTTGCTAA	0.0456
ACTCGGCG	-0.169
CCCATTAC	0.145
GGGCCGAC	-0.317
CCATCTAG	-0.0951
CGTTTACA	0.349
GATACTGA	-0.0459
GCTGCTAC	-0.21
CCACCAAA	-0.137
AGTGAAGG	0.179
ACCAAGAT	-0.0946
ACCGTATG	-0.115
CTTCCGTC	-0.151
CATGAGAA	0.233
CCTGGGTA	-0.0534
AGCCCCAT	-0.0787
CCATGGGA	-0.262
CCATTCAC	-0.156
AAAACCCT	-0.0651
CCGGGGCA	-0.234
CATAGGGC	0.0429
GACGGGTA	-0.204
ACAGGCAA	0.489

Sequence	PBM E-score
GCCAAAGA	-0.0826
GTGAAGCA	-0.145
ATTGCCAA	-0.0917
AGAGCGGC	-0.159
ATATGATC	-0.0454
AATGTGGA	-0.00117
CATTCAGG	0.00366
CAAGAGCG	-0.137
ACCGATGC	-0.164
GTAGACAC	0.129
GAATGCGC	-0.141
CGGTGTGA	-0.116
CCTGGGGA	-0.0479
ATGACTAA	-0.128
CATGCTAG	0.123
ATACCACC	-0.132
CATATGTC	-0.14
ATAAGATG	-0.0926
GCTCAAAA	-0.0353
ACTTGGGA	-0.155
AATTCAAG	0.115
CTTGCTCC	-0.258
GTCGACTA	0.0579
GGTTCTAC	0.0499
CTCTATCC	-0.0756

Sequence	PBM E-score
ATCGGGCA	-0.0672
ACATTCAT	0.236
AGCCAGGA	-0.0709
CGGTGGTC	-0.0989
TCAAACCA	-0.0433
ACCAGCAG	-0.37
CACTCTAC	0.152
GCGGAGCC	-0.225
GTATTAGA	0.201
TGCAACAA	0.125
GGCTCACC	-0.261
CTCAAGTC	-0.136
AACGGGGC	-0.169
CCCTTATA	0.0164
AAGGAAAG	0.441
CGTAGTCC	-0.254
AAGGTGCA	0.102
AATATGGT	-0.0897
ATAGGACC	-0.0931
AAACGCCA	0.071
CTTGTGAA	0.152
AACGTCAA	0.0839
GGCATGCC	-0.126
TTATTAAA	0.175
CTCATGCA	-0.138

Sequence	PBM E-score
CATGCTGC	-0.125
CTGATAGA	-0.0628
AAAGACCT	-0.0824
AGATTCGA	-0.0235
GATTGATA	0.122
ATTTTCTC	-0.195
AGTAGCCA	-0.269
GTGGCTCA	-0.26
AGCTTGAG	-0.308
CCGCGGCA	-0.0732
CAACCATG	0.127
AAAGCACC	-0.0982
ATCTGTGA	-0.161
CGTATGAG	-0.159
CGCTTCCC	-0.126
TAGTAGCA	-0.011
AAAATCTG	-0.0854
ATCTCCAG	-0.118
GATGGGCA	-0.0681
GGTTCCTA	0.454
ACAAGAGG	0.166
ACAGTCCA	0.0673
TAATGCTA	0.24
CAAGTCAA	0.0158
CCCCAACA	-0.0637

Sequence	PBM E-score
GCACAAAC	0.0655
CCTGAAGG	0.0946
CGCCCCGA	-0.237
AGGTTAAG	0.137
GATGGGAA	-0.153
CAGACGCA	-0.108
CATCGATC	-0.0248
AGATGAAA	0.00204
CTAGCGAA	-0.274
CGGTAACG	-0.13
GGCGAGCC	-0.0946
CGGCCTAA	-0.0857
CCTCTCCC	-0.133
ATCGATGA	0.0733
CGTAAGGA	0.232
AGAGTTCG	-0.0196
GTGACGTA	0.138
AGTTCCAG	-0.143
CCTCAGAA	0.025
CACTGATA	-0.0318
CAGGCCTA	-0.148
AGTGCCGC	-0.373
ACCTACGA	0.285
CCAGTCGC	-0.259
GTAGGGTA	-0.0161

Sequence	PBM E-score
ACTCCCGA	-0.281
AACGGTAA	0.0433
GAAAGAAA	0.1
GCTACTGA	-0.122
CCTGCAAA	0.285
CAGTGACC	-0.247
CTAGTCAC	-0.047
CCGGGCTA	-0.116
GTAAGCAC	0.0813
TACAAGAA	0.214
GGTCCACC	-0.259
AGCAACAC	0.143
CAGGGTAG	-0.147
AGTCTACG	-0.14
GTCCAGAC	-0.261
AGCTATCA	-0.0955
CGTCCCAC	-0.0132
AATCGTAG	0.0639
CTAAGGCA	0.452
ACACGCGC	0.21
CCGCACAA	-0.326
AAAGAATT	0.104
ATGCACCG	-0.0841
CTCGAATA	-0.115
GAGTTGCA	-0.0669

Sequence	PBM E-score
ATACGTGC	0.185
AACTACCC	0.0263
CACAGGTG	0.0773
CTGCCCAA	-0.173
GTTGACAA	0.177
AGATTTAA	0.144
AAGGTAGA	-0.0631
AGCTGTAG	0.00057
ATGTGGGG	-0.188
CGACCGCA	-0.0853
AAGATGAT	0.0671
AATGACTA	-0.0693
GAGGTGGC	-0.275
ACTATAAG	-0.0293
ACATTGGT	-0.00875
GCCCCCAA	-0.135
GGTAGAAC	-0.0739
CAATAGCC	0.0124
CTAGGAGC	-0.225
AATCGACT	-0.0375
GATTCATA	-0.139
CAAAGAGG	0.141
GACACGAC	0.31
CCTAGCAA	0.0746
CCTCGCTC	-0.12

Sequence	PBM E-score
TGGTTCAA	-0.109
ACGTGACT	0.104
GAACTGAA	0.0162
GCACTTAC	0.0258
TAAGGACA	-0.0242
AGTCCGGC	-0.124
CGTGCCTC	0.469
CCACAATC	-0.227
ATCATATA	0.0889
CTCCTATA	0.0817
ACGGACCA	-0.0375
ACAATGCT	0.0399
CTGACACC	-0.106
ACGTCTGA	-0.00689
CAGGAAGA	-0.00284
ACATAGAG	0.205
TGGATTAA	-0.0318
AATTTACC	0.153
GTGCTAAC	-0.119
CGCTGACA	0.0501
GGCTTGCA	0.0946
CTCCCGTA	-0.312
AGCCGAAA	-0.186
CGGAGGTA	-0.0405
ATGCTTTA	0.117

Sequence	PBM E-score
TCCTGCGA	0.053
GGCGCGCA	-0.197
CTTGTAAC	0.281
AGGTTACG	0.00664
CTCGAGTA	-0.0178
AGCTTTTC	-0.105
AGAGGTCG	-0.0837
GCGGGCAC	0.296
CAGGGGCC	-0.0646
ACTCGAGA	-0.152
GCCCTTAC	-0.0326
ACCACCAG	-0.0445
CTATAAGA	-0.175
TCGAAACA	-0.00906
CTTCCAGC	-0.259
TCCGTCGA	-0.149
GTCATCGA	-0.048
CTCCTCAG	-0.175
CAGTTTAA	0.121
ACCTGGGA	-0.0112
TACGAGGA	0.0558
AATACTTA	0.0441
GTAAGCAA	-0.0739
ACATTAGT	0.187
CCGCAGTA	-0.212

Sequence	PBM E-score
CTGACATC	0.0354
ATTTCAGC	0.00613
TAATTCGA	0.105
ATACTTAA	0.173
CTTTTGGC	-0.162
AATGCAAC	0.103
CGACACCC	-0.149
AGAAGTAA	0.0883
ATTCTGTA	0.00519
ACCCGCTA	-0.00464
AAATTATG	0.114
CGCATCTA	-0.0639
CATGTCCC	0.0461
GAGGTACC	-0.0594
AAGTGGTC	-0.283
CTGCCATC	-0.156
AGCGGATC	-0.18
AGTTTGGG	-0.0476
AATCAGTG	-0.124
AATGATGC	0.0334
AGCAAAAC	0.0663
GATCAGCC	-0.357
TGCAATAA	0.134
CCGTTAAG	-0.0319
CGGTAGAA	-0.207

Sequence	PBM E-score
ATTGACGG	-0.154
CGGATTGA	-0.125
AACGTGAC	0.0512
AGGCAGAG	-0.0331
ACTCCACC	-0.139
GGTGGTCA	-0.235
TGTGGAAA	0.129
ATCTTTTC	0.0767
AACTATTC	0.015
ACATAGCC	0.186
AGAGAACA	0.157
CCCTATTC	-0.216
AGGAGCCG	-0.296
CCCGCTGA	-0.264
ATTCCCGC	-0.131
CCTTGGCA	-0.184
GTATCAAA	0.0303
CACATTCC	0.0272
CCCATAGG	-0.0217
CTGGCCAA	-0.0769
CGGCTATC	-0.341
AAGGGGCC	-0.0871
ACGGTTGC	0.024
GTTATCGA	-0.104
ATGCGCGC	-0.0271

Sequence	PBM E-score
ACTTAAAA	0.0954
CAAGCGTA	0.00011
CACCTCGC	-0.249
AGTTATTG	0.029
ACGGGAGT	-0.168
CTTAACAC	0.333
CCCTGCAA	0.00233
AAGCCCTA	0.116
GCTCAAGC	-0.308
AAAAATAA	0.109
TTAAGAAA	0.14
AGAAAATA	-0.0363
CACGTGGG	-0.0188
CCCGGTCC	-0.254
GGCCCATA	-0.108
AAGCTTGC	-0.0575
GGACGCTA	-0.206
ACCGCGAC	-0.0532
CCGTAGAA	0.0555
ACAGCGAC	-0.225
CGGCAGTA	-0.11
AGGTAGAG	-0.0271
ATTCCCGG	-0.0185
AGAGAACC	-0.214
ACTTGGGC	-0.154

Sequence	PBM E-score
CCTAAGAG	-0.00156
TGGCCCCA	-0.246
GATAGAAA	-0.091
TCCCAGGA	-0.202
CTAGATAG	0.0526
ATACGGAA	-0.0423
ACCTGCCT	0.226
CCGATCGA	-0.221
AGTCACGC	0.216
AAATCTTC	-0.0135
GAATTCCA	-0.166
TACTACCA	-0.0954
CAAAGATA	-0.0691
ATCGGATC	-0.134
CAATCCAA	0.0375
AGGCGTTA	0.0946
ACGTGTAC	0.343
AGTATAAT	0.00295
CTCGCCGA	-0.259
